# From PubChem BioAssay AID463173 (ICCB-Longwood Screening Facility, Harvard Medical School, 2010)
# Among all 52,000 compounds or so, about 1,700 (3.3%) were called active. No stated cut-off is given here; in the data, active means survival mostly below about 52% (no sharp cut-off); inactive means mostly above about 56%. Some of the results follow.
# Tested on: Wild type
# Assay: S. aureus survival, RN4220 and DeltatarO strains – OD600, teichoic acid synthesis inhibitors, primary screen (AID 463173)
# Conditions: S. aureus RN4220 wild type/DeltatarO growth, OD600, 18 h, stronger effect = lower value, screened at 18.75 µg/mL (by protocol)
row,Structure (SMILES),survival
1,COc1ccc(S(=O)(=O)n2ccnc2)cc1C(C)(C)C,inactive: 69%
2,CCc1ccccc1N1C(=O)N(Cc2ccccc2C)c2ccccc2S1(=O)=O,inactive: 69%
3,CCOc1ccc(CNC(=O)CSc2nnc(C)c3c(C)n(-c4ccccc4)nc23)cc1,inactive: 105%
4,COc1ccc(C(C(=O)NC2CCCC2)N(C(=O)c2ccco2)c2ccc(NC(C)=O)cc2)cc1OC (stereo not given),inactive: 108%
5,Cc1ccccc1CCNC(=O)c1ccc2c(c1)c(C)c(C)n2Cc1ccccc1,inactive: 124%
6,CC(C)CN(CCCNC(=O)CN1C(=O)CSc2ccc(S(=O)(=O)N3CCOCC3)cc21)CC(C)C,inactive: 92%
7,COc1ccc(OC)c2sc(N3CCN(C(=O)C4CC4)CC3)nc12,active: -6%
8,COc1ccc(OC)c(-n2cnc3cc(C(=O)NC4CCCCCC4)ccc32)c1,inactive: 72%
9,CCOc1ccc(NC(=O)CC2C(=O)OCCN2CC)cc1 (stereo not given),inactive: 59%
10,COc1ccccc1NC(=O)c1cnc(SCC(=O)N2CCCc3ccccc32)n(C)c1=O,inactive: 81%
11,COc1cc(NC(=O)c2ccccc2)c(OC)cc1NC(=O)CN1CCCCC1,inactive: 109%
12,COc1ccc(N2CCN(C(=O)c3cc4ccc5cccnc5c4[nH]3)CC2)cc1,inactive: 88%
13,COc1ccc(-c2cc(C)nc3c(-c4ccc(OC)c(OC)c4)c(C)nn23)cc1,inactive: 65%
14,CSc1ccc(-c2nc3ccc(C)cn3c2Nc2ccccc2C)cc1,inactive: 114%
15,Cc1cccc(-c2nnn3c2nc(NCCc2ccc(S(N)(=O)=O)cc2)c2cc(Cl)ccc23)c1,inactive: 89%
16,CS(=O)(=O)N(CC(=O)NCCc1ccccc1)c1cc(C(F)(F)F)ccc1Cl,inactive: 79%
17,N#Cc1cn(CC(=O)NCc2ccccc2)c2ccccc12,inactive: 110%
18,Cc1cccc(Oc2nc3c(c(=O)n(C)c(=O)n3C)n2C)c1,inactive: 129%
19,CCCCCn1c(=O)[nH]c2cc(C(=O)N3CCN(c4cccc(C)c4)C(C)C3)ccc2c1=O (stereo not given),inactive: 59%
20,CCOC(=O)/C(C#N)=N\Nc1cc(C)cc(C)c1,inactive: 97%
21,O=C(NCC12CC3CC(CC(C3)C1)C2)c1cc2nc(-c3ccccc3)cc(C(F)(F)F)n2n1,active: -12%
22,CC(NC(=O)c1ccccc1NC(=O)c1nsc2ccccc12)c1ccccc1 (stereo not given),inactive: 133%
23,Fc1cc(Br)ccc1Nc1c2c(nc3nc(-c4cccs4)nn13)CCCC2,active: 0%

row,Structure (SMILES),survival
1,CNC(=O)c1cc(Nc2nnc(-c3ccc(O)cc3)c3ccccc23)ccc1OC,inactive: 132%
2,O=C1CCCc2cc(S(=O)(=O)NCC3CCC(C(=O)Nc4ccccc4F)CC3)ccc2N1 (stereo not given),inactive: 78%
3,COc1ccc(OC)c(CCNc2ncnc3onc(-c4ccc(F)cc4)c23)c1,inactive: 119%
4,COC(=O)c1ccc(OC)c(Cn2c(=O)n(Cc3ccccc3)c(=O)c3c2c2cc(OC)ccc2n3C)c1,inactive: 66%
5,COc1ccc(CN2C(=O)C(C)Oc3ccccc32)cc1 (stereo not given),inactive: 103%
6,CC1CCCC(C)N1C(=O)CSc1nc(N)c(-c2ccccc2)c(=O)[nH]1 (stereo not given),inactive: 113%
7,CCCCOc1ccc(C(=O)N2CCN(CCc3ccccn3)CC2)cc1,inactive: 88%
8,CC(=O)c1ccc(NC(=O)C2=CC(c3ccc4c(c3)OCO4)=NS(=O)(=O)N2C)cc1,inactive: 107%
9,O=C(CN1CCC(O)(c2ccccc2)CC1)NC1CCCCC1,inactive: 111%
10,COc1ccc(-c2noc(CCC(=O)NCc3ccc(C)cc3)n2)cc1,inactive: 94%
11,O=c1n(Cc2cccc(C(F)(F)F)c2)c2ccccc2c2nc(-c3ccccc3)nn12,inactive: 86%
12,Cc1ccc(-c2ccc(CCC(=O)O)n2-c2cccc(O)c2)cc1,inactive: 86%
13,COc1ccc(-c2ccc(=O)n(CC(=O)Nc3ccc(C)cc3C)n2)cc1,inactive: 55%
14,Cc1ccc(C(=O)Nc2ccc3oc(-c4ccc(C(C)(C)C)cc4)nc3c2)cc1,inactive: 75%
15,CCCN1C(=O)C(NC(C)=O)c2cc(C)ccc21 (stereo not given),inactive: 107%
16,Cc1ccc(CNC(=O)CCCCCn2c(=O)c3sccc3n(CC(=O)N(C)c3ccccc3)c2=O)cc1,inactive: 83%
17,CCOC(=O)c1cccc(NC(=O)Cn2ncc3c4ccccc4n(Cc4ccccc4)c3c2=O)c1,inactive: 88%
18,CCc1ccc2oc(C(=O)Nc3cccc(C(F)(F)F)c3)cc(=O)c2c1,inactive: 88%
19,CSc1nn(Cc2ccc(Cl)cc2)c(N(C(C)=O)C(C)=O)c1S(=O)(=O)c1ccccc1,inactive: 57%
20,Cc1ccc(NS(=O)(=O)c2ccc3[nH]c(=O)ccc3c2)cc1N(C)C,inactive: 53%
21,Cc1cccc(Cn2c(=O)n(CCc3ccccc3)c(=O)c3c(C)c(C)sc32)c1,inactive: 90%
22,Cc1ccc(NC(=O)c2cc(C)nc3c2c(C)nn3-c2cccc(Cl)c2C)c(C)c1,active: -6%
23,C#CCOc1ccc(-c2nnc(Nc3cccc(C)c3)c3ccccc23)cc1,inactive: 79%

row,Structure (SMILES),survival
1,CCn1cc(C(=O)NCc2ccccc2OC)c(=O)c2cc(S(=O)(=O)N3CCCCC3)ccc21,inactive: 91%
2,COc1ccccc1CN1COc2ccc3c(oc(=O)c4ccccc43)c2C1,inactive: 95%
3,CCn1c(=O)cc(SCC(=O)NCCc2ccc(Cl)cc2)c2ccccc21,inactive: 70%
4,COc1ccccc1Nc1cc(C(=O)NC2CCCC2)c2ccccc2n1,inactive: 79%
5,COc1ccc(/C=C/C(=O)Nc2sc3c(c2C(N)=O)CCCC3)cc1,inactive: 72%
6,CCOC(=O)c1cnc(NCc2ccccc2OC)c2ccccc12,inactive: 80%
7,COc1cccc2sc(=NC(=O)c3ccc(S(=O)(=O)N4CCCCC4)cc3)n(C)c12,inactive: 93%
8,COc1ccc(S(=O)(=O)N2CCCCC2)cc1C(=O)Nc1cccc(C(F)(F)F)c1,inactive: 93%
9,CCOC(=O)C1CCC(CN(Cc2ccc(Cl)cc2)S(=O)(=O)c2ccc(F)c(C(=O)Nc3cccc(F)c3)c2)CC1 (stereo not given),inactive: 73%
10,CCN(CC)C(=O)c1sc2c(c1C)c(=O)n(Cc1ccccc1)c(=O)n2Cc1ccc(Cl)cc1,inactive: 73%
11,NS(=O)(=O)c1cccc(S(N)(=O)=O)c1,inactive: 117%
12,O=c1oc2ccccc2c(O)c1CN1CCCCC1,inactive: 73%
13,COCCNC(=O)c1cc2nc3c(c(C(F)(F)F)n2n1)CCc1ccccc1-3,inactive: 102%
14,O=C(CCS(=O)(=O)c1nc(-c2ccc3c(c2)OCO3)cc(C(F)(F)F)n1)Nc1ccccc1F,inactive: 79%
15,COc1ccc(Nc2nc3ccccc3c3nnc(C)n23)cc1Cl,inactive: 65%
16,CCOc1ccc(C(=O)Nc2ccc(S(=O)(=O)N3CCOCC3)cc2)cc1OCC,inactive: 113%
17,CCN(C(=O)CCn1cnc2onc(-c3ccc(F)cc3)c2c1=O)c1ccc(OC)cc1,inactive: 80%
18,CCc1cccc(-n2nnc(-c3nc(-c4ccccc4Cl)no3)c2N)c1,inactive: 98%
19,COc1ccc2nc3sc(C(=O)N4CCCC4)c(N)c3cc2c1,inactive: 104%
20,Cc1cccc(N2CCN(C(=O)c3cnn(-c4cccc(Cl)c4C)c3C3CCNCC3)CC2)c1C,inactive: 66%
21,Cn1nnc2c(NCCc3ccccc3)ncnc21,inactive: 70%
22,O=C(NCC(c1cccnc1)N1CCc2ccccc2C1)C(=O)Nc1ccc(Cl)cc1 (stereo not given),inactive: 49%
23,Fc1ccc(-c2cn3ccccc3n2)cc1,inactive: 108%

row,Structure (SMILES),survival
1,Cc1ccc(-c2noc(CSc3nnc(Cc4ccccc4)n3-c3cccc(C)c3)n2)cc1,inactive: 61%
2,Cc1cc(C)c(NC(=O)Cn2c(=O)n(Cc3ccco3)c(=O)c3ccc(C(=O)NC4CCCC4)cc32)c(C)c1,inactive: 126%
3,Cc1ccc2c(c1)N(CC(=O)NCc1ccccc1Br)C(=O)c1cccnc1O2,inactive: 71%
4,CC(C)c1ccc(NC(=O)c2cccc3c2C(=O)N(C2CCCCC2)C3)cc1,active: 1%
5,CCCc1nc2ccccc2n2c(-c3ccc(C)cc3)c3c(=O)n(C)c(=O)n(C)c3c12,inactive: 64%
6,COc1ccccc1NC(=O)c1c(NC(=O)c2ccco2)sc2c1CCC(C(C)(C)C)C2 (stereo not given),inactive: 96%
7,CCSc1ncc(Cl)c(C(=O)Nc2c(C(=O)c3ccc(C)c(F)c3)oc3ccccc23)n1,inactive: 121%
8,CC(=O)c1cccc(NC(=O)c2c(N3CCCC3=O)c3cc(F)ccc3n2C)c1,inactive: 80%
9,CCCc1cc(NCc2cccnc2)n2c(nc3ccccc32)c1C#N,inactive: 107%
10,CCOCCCNC(=O)C(c1ccc(C)cc1)N(Cc1cccs1)C(=O)c1ccc(NC(C)=O)cc1 (stereo not given),inactive: 132%
11,CCC(=O)NC(c1ccccc1OC)c1cc(Cl)c2cccnc2c1O (stereo not given),inactive: 91%
12,Cc1ccc(NC(=O)Cn2c(=O)n(CCc3ccccc3)c(=O)c3c4c(sc32)CCCC4)c(C)c1,inactive: 95%
13,CCNC(=S)NC1CC2CCC1C2 (stereo not given),inactive: 111%
14,CCc1cccc(NS(=O)(=O)c2c(C)nc3sc(CC)nn3c2=O)c1,inactive: 72%
15,COc1ccc(N2CC(NC(=O)c3cc4ccccc4o3)CC2=O)cc1OC (stereo not given),inactive: 70%
16,COc1cc(/C=C(\C#N)C(=O)Nc2ccc(C)cc2)ccc1OCc1cc(=O)n2nc(C)sc2n1,inactive: 81%
17,NC(=O)CSc1nnnn1C1CCCCC1,inactive: 119%
18,Cc1ccc(N2CC(NC(=O)c3ccc(S(=O)(=O)N4CCCCC4)cc3)CC2=O)cc1 (stereo not given),inactive: 71%
19,COC(=O)c1ccc(NC(=O)c2cc(=O)c3ccc(C)cc3o2)cc1,inactive: 107%
20,O=c1oc2ccc(Br)cc2cc1-c1csc(-c2ccccc2)n1,inactive: 70%
21,COc1ccc(C/C(N)=N/OC(=O)Cc2ccccc2)cc1,inactive: 104%
